# Assay results reported in patent publication US8415399B2, “Retrovirus-infection inhibitor” (Nagasaki University, priority 2006, dated 2013).
# Legend:
# Test in all cases: Cytotoxicity test: cell count, cell proliferation
# NP2/CD4/X4 cell = conditions: Homo sapiens, 48 h, read-out: concentration to suppress cell proliferation by 50%
# TE671/CD4 cell = format: cell-based; conditions: Homo sapiens, TE-671, 48 h, 2 days culture, read-out: concentration to suppress cell proliferation by 50%
# HeLa/CD4 cell = format: cell-based; conditions: Homo sapiens, 48 h, 2 days culture, read-out: concentration to suppress cell proliferation by 50%
SMILES,IC50 (NP2/CD4/X4 cell),IC50 (TE671/CD4 cell),IC50 (HeLa/CD4 cell)
CC(C)=CCC/C(C)=C/CC/C(C)=C/C=C/C(C)=C/C(=O)O [NIK-333],7 µM,8 µM,7 µM
"CC1=C(/C=C/C(C)=C/C=C/C(C)=C/C(=O)Nc2ccc(O)cc2)C(C)(C)CCC1 [fenretinide, 4-Hydroxyphenylretinoid, reference compound]",0.7 µM,2 µM,≥ 2 µM
